According to patent publication US20250026844A1 (SHANDONG SIMCERE BIOPHARMACEUTICAL, published 2025):
Substitutions are numbered along the chain they refer to. Read-outs that look alike come from different tables or passages of the source.

Key:
[1] = target: T1, human BCMA on cells (human, UniProt Q02223 1-184); test: FACS, U266 cells
T1 construct: whole, on cells; also called H929 cells; U266 cells
T1 sequence (looked up): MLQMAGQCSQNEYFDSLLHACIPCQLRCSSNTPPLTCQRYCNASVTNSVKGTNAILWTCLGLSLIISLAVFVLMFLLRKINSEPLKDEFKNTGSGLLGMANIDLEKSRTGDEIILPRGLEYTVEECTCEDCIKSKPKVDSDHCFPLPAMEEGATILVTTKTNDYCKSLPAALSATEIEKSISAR

[2] = target: T1, human BCMA on cells; test: FACS, H929 cells
[3] = target: T1, human BCMA on cells; test: FACS, H929 cells; remark: listed apart in the source
[4] = target: T2, human BCMA-His protein (human, UniProt Q02223 1-54); test: SPR (Biacore), antibody captured on Protein A chip, BCMA-His in solution
T2 construct: Bought protein; also called human BCMA protein; huBCMA-His; not shown: His tag
T2 sequence (looked up): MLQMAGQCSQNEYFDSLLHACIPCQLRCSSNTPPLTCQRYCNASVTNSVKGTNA

[5] = target: T1, human BCMA on cells; test: FACS, U266 cells; remark: listed apart in the source
[6] = target: T1, human BCMA on cells; test: FACS, H929 cells; remark: listed apart in the source
[7] = target: T1, human BCMA on cells; test: FACS, U266 cells; remark: listed apart in the source
[8] = target: T2, human BCMA-His protein; test: SPR (Biacore), antibody captured on Protein A chip, BCMA-His in solution; remark: listed apart in the source
[9] = target: T1, human BCMA on cells; test: FACS, U266 cells; remark: listed apart in the source
[10] = target: T1, human BCMA on cells; test: FACS, H929 cells; remark: listed apart in the source
[11] = target: T2, human BCMA-His protein; test: SPR (Biacore), antibody captured on Protein A chip, BCMA-His in solution; remark: listed apart in the source
[12] = target: T1, human BCMA on cells; test: FACS, H929 cells; FACS, H929 cells

B1: BCMA-Lab05 (Fc fusion)
heavy: QVQLVESGGGLVQPGGSLRLSCAASGFTLAYYMIGWFRQAPGKEREGVSSISSGTGSTYYANSVKDRFTISRDNAANKVYLEMNSLKPEDTAIYYCAAGNEATITWGFGPYEYDYWGQGTQVTVSS[human IgG1 Fc with C220S (EU numbers) skipped]
notes: VHH-hFc recombinant candidate antibody; no linker stated
[1]
  EC50: 3.63 nM
  Maximum mean fluorescence intensity: 714 MFI
[2]
  EC50: 1.42 nM
  Maximum mean fluorescence intensity: 3190 MFI

B2: HPN217-hHcAb (Fc fusion)
heavy: EVQLVESGGGLVQPGRSLTLSCAASTNIFSISPYGWYRQAPGKQRELVAAIHGTSTLYADSVKGRFTISRDNAKNSIYLQMNSLRPEDTALYYCNKVPWGDYHPGNVYWGQGTQVTVSS[human IgG1 Fc with C220S (EU numbers) skipped]
notes: no linker stated
[3]
  EC50: 2.24 nM
[4]
  Kd: 1.17 nM
  koff: 0.0031 s⁻¹
  kon: 2.64e+06 M⁻¹ s⁻¹
[5]
  EC50: 1.83 nM
[6]
  EC50: 4.12 nM
  Maximum mean fluorescence intensity: 5020 MFI
[7]
  EC50: 2.8 nM
  Maximum mean fluorescence intensity: 1260 MFI

B3: BCMA-Lab18 (Fc fusion)
heavy: QVQLVESGGRLVQPGESLRLSCVASGFTFSSSAMSWARQAPGKGLEWMSGIYPDGTPVYADSMKGRFTVSRDNAKNMVYLQMNSLKPEDTAVYYCAVGIRLSDYQGQRRQLLGQGTQVTVSS[human IgG1 Fc with C220S (EU numbers) skipped]
[4]
  Kd: 1.01 nM
  koff: 0.00206 s⁻¹
  kon: 2.04e+06 M⁻¹ s⁻¹
[6]
  EC50: 2.79 nM
  Maximum mean fluorescence intensity: 5270 MFI
[7]
  EC50: 1.76 nM
  Maximum mean fluorescence intensity: 1420 MFI

B4: BCMA-Lab08 (Fc fusion)
heavy: QVQLVESGGGLVQPGGSLRLSCTDSGFTLNYYMIGWFRQAPGKEQEGLSSISAGDGSTYYADSVKGRFTISRDYAKNTVYLEMNDLKPEDTGVYYCAAGNEGAITWGFGPYEYDYWGQGTQVTVSS[human IgG1 Fc with C220S (EU numbers) skipped]
notes: as for B1
[8]
  Kd: 20.8 nM
  koff: 0.275 s⁻¹
  kon: 1.32e+07 M⁻¹ s⁻¹
[1]
  EC50: 5.14 nM
  Maximum mean fluorescence intensity: 693 MFI
[2]
  EC50: 3.34 nM
  Maximum mean fluorescence intensity: 2770 MFI

B5: BCMA-Lab01 (Fc fusion)
heavy: QVQLVESGGGLVQPGGSLRLSCSGSGFTLDYYMIGWFRQAPGKEREGLSSISPADGSTYYADSVKGRFTISRDSAKNTVYLQMNNLKPEDTALYYCAAGNEATISWGFGPWEYDYWGQGTQVTVSS[human IgG1 Fc with C220S (EU numbers) skipped]
notes: as for B1
[9]
  EC50: 3.07 nM
  Maximum mean fluorescence intensity: 1750 MFI
[10]
  EC50: 3.05 nM
  Maximum mean fluorescence intensity: 10000 MFI
[11]
  Kd: 0.533 nM
  koff: 0.000681 s⁻¹
  kon: 1.28e+06 M⁻¹ s⁻¹
[8]
  Kd: 0.527 nM
  koff: 0.000702 s⁻¹
  kon: 1.33e+06 M⁻¹ s⁻¹
[1]
  EC50: 1.8 nM
  Maximum mean fluorescence intensity: 3140 MFI
[2]
  EC50: 2.82 nM
  Maximum mean fluorescence intensity: 6980 MFI

B6: BCMA-Lab04 (Fc fusion)
heavy: B5 heavy with Q1E, L4V, S23A, D30A, S74N, N85S, T103A, S105T, W111Y
notes: as for B1
[8]
  Kd: 3.22 nM
  koff: 0.00269 s⁻¹
  kon: 836000 M⁻¹ s⁻¹
[1]
  EC50: 3.93 nM
  Maximum mean fluorescence intensity: 2510 MFI
[2]
  EC50: 7.72 nM
  Maximum mean fluorescence intensity: 6900 MFI

B7: BCMA-Lab03 (Fc fusion)
heavy: B5 heavy with Q1E, L4V, S23A, D30A, Y31H, S74N, N85S, W111Y
notes: as for B1
[8]
  Kd: 3.79 nM
  koff: 0.00315 s⁻¹
  kon: 829000 M⁻¹ s⁻¹
[1]
  EC50: 7.05 nM
  Maximum mean fluorescence intensity: 1280 MFI
[2]
  EC50: 5.36 nM
  Maximum mean fluorescence intensity: 7760 MFI

B8: BCMA-Lab16 (Fc fusion)
heavy: QLQLVESGGGLVQPGESLRLSCTGSGFTLAYYMIGWFRQAPGKEREGLSCISPADGSTYYADSVKGRFTISRDNAKNVVYLQMNNLKPEDTGVYYCAAGNEAAITWGFGPYEYDQWGQGTQVTVSS[human IgG1 Fc with C220S (EU numbers) skipped]
[4]
  Kd: 0.558 nM
  koff: 0.00157 s⁻¹
  kon: 2.82e+06 M⁻¹ s⁻¹
[6]
  EC50: 3.51 nM
  Maximum mean fluorescence intensity: 5000 MFI
[7]
  EC50: 1.48 nM
  Maximum mean fluorescence intensity: 1400 MFI

B9: BCMA-Lab09 (Fc fusion)
heavy: EVQVVESGGGLVQPGGSLRLSCAASGFTFSSSAMSWARQAPGKGLEWVSGIYPDGSAEYTDSMKGRFTITRDNAKNTVYLQMNSLKPEDTAVYYCAIGRGPSIQAMFRPGGWGQGTQVTVSS[human IgG1 Fc with C220S (EU numbers) skipped]
[4]
  Kd: 79.7 nM
  koff: 0.00399 s⁻¹
  kon: 50000 M⁻¹ s⁻¹
[12]
  EC50: 44.1 nM
